In the RNAGym collection of RNA variant scans (doi:10.1093/nar/gkz1192):
Read counts are not given, so values of variants with three or more changes are uncertain.

B1: CPEB3 Ribozyme (parent)
chain: UAACAGGGGGCCACAGCAGAAGCGUUCACGUCGCAGCCCCUGUCAGAUUCUGGUGAAUCUGCGAAUUCUGCUGUAUAUCUC

Variants of: B1
Test: self-cleavage, relative activity (ratio to wild type); higher = more cleavage; in vitro, sequencing
Outline: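 Libraries of CPEB3 self-cleaving ribozyme mutants came from rounds of error-prone PCR and carried barcodes, which DNA sequencing matched to variants. In vitro transcription used T7 RNA polymerase at 37°C for 5 hours, with a further 15 min in DNase I before EDTA stopped the reaction; the ribozymes cleaved during both steps. The RNA was reverse transcribed with template switching and sequenced on Illumina. Relative activity is the cleaved/total read fraction of a variant divided by that of the unmutated ribozyme, averaged over three batches with at least 5 reads.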

Row | Variant | self-cleavage
1 | C12A U25C U60A U69C | 0.3
2 | C11U A45C A57C | 0.06
3 | C11U A13G U41C U48C A56U A57U U69C | 0.28
4 | C12A A28U A57G U67C | 0.16
5 | C11U A20G U25C A56G A64G | 0.09
6 | C11U A15C A45U U49A C50G A57G U58C | 0.05
7 | C11U A13G C38G G53A U58A C68U | 0.04
8 | C11U A15U C34G | 0.5
9 | C11U A28G C79A U80A | 0.28
10 | C11U U25C A35U U72A | 0.05
11 | C11U U26A C44U U60A U78C | 0.08
12 | C11G U31C A35U U80C | 0.33
13 | C11U U67A C79U | 0.1
14 | C11U A28G U60C C79G | 0.25
15 | C12A A13G C32U U54G A57G U66C | 0.18
16 | C11U A21G C27U A57G A65G | 0.06
17 | C11U U31C A45G A65G | 0.11
18 | C11U A20U U54C A64U U74A U76C | 0.04
19 | C11U A13U C50U A65G | 0.13
20 | C12A A13G U43A A47G U67G | 0.05
21 | C11U U41C U49A A77C | 0.18

Row | Variant | self-cleavage
22 | C11U A15U C40G A65G G73A | 0.25
23 | C11U A15G U49C | 0.07
24 | C12A A18U A45U U72C U80C | 0.47
25 | C12A U26C U67C U69A | 0.06
26 | C11U C40G U43A C44U A65G | 0.13
27 | C12A U25C A47C A64G U72C U78A | 0.1
28 | C11U U43C A56G U60C U76A U80C | 0.11
29 | C12A U25C U26C U48C A57G C59U | 0.21
30 | C11U U41C U72C | 0.94
31 | C12A A13G A57G | 0.49
32 | C11U A18U A21G C29A U54C | 0.04
33 | C11U G16U U25C C37U | 0.05
34 | C11U A56G C71U | 0.11
35 | C11U C23U U41C A45G | 0.39
36 | C11G U48C A57G | 0.49
37 | C11U U25C U67C U80C | 0.06
38 | C12A A18U U43A U69A U80C | 1.22
39 | C11U A15U A21G C40G A65G | 0.06
40 | C11U A20G U67G | 0.09
41 | C11U A20G U67C | 0.63
42 | C11U U31A C68A U78C | 0.06

Row | Variant | self-cleavage
43 | C12A A18U U25C | 0.13
44 | C11G U31C U43C U58C G63A A64U | 0.06
45 | C11U U25C A35G A45G A77U | 0.05
46 | C11U U31C U48C A56U U69A | 0.16
47 | C11U A28G U51C | 0.14
48 | C11U A47U U66A U80C | 0.05
49 | C11U U51C A56G U74C | 0.65
50 | C11G U43C U58C | 0.19
51 | C11U A18G A21U U26A A47U | 0.09
52 | C11U A13G U26A U80C | 0.45
53 | C11G U69C U80A | 0.32
54 | C11U G63A U69C U72C | 0.1
55 | C12A U31C U41C U54C | 0.52
56 | C11G U49C U67C A77G | 0.05
57 | C11G U51C U60A U80C | 0.18
58 | C11U U43C U78A | 0.19
59 | C12A A35G G55A U60C U80G | 0.08
60 | C12A A45G U48C C62U A64G U69C U76A | 0.18
61 | C11U A35U A45U U49C U69G U78A | 0.12
62 | C11U A21G U26C C39U U54C U58C U78C | 0.03
63 | C12A A45U A47G U72C U80A | 0.28

Row | Variant | self-cleavage
64 | C11U U25C A28U | 0.04
65 | C11G U60A U72C | 0.32
66 | C11U C37A C39A U72C | 0.23
67 | C12A A13U A35G A47G U72A | 0.47
68 | C11U C17G U25G U49C U54C A57G U67A | 0.02
69 | C12A A13U A15U A20U U25A U41C A75G | 0.1
70 | C11U A20U U26C U48C U51C A64G A75G | 0.03
71 | C12A U31A U43C | 0.25
72 | C11U C32A C44U U51C A77U U78C | 0.11
73 | C11U C23U U51A U60A | 0.16
74 | C11U U49C U67C | 0.12
75 | C11U A18G U26C C71A | 0.11
76 | C11U U66C U78C | 0.06
77 | C11U A35C A65G | 0.18
78 | C11G U43C U51C U67C U69C | 0.03
79 | C11U U31C U58C U60C A64G | 0
80 | C11U A28G A35U U72C U80C | 0.19
81 | C11U C12U C27A U58C U72A | 0.08
82 | C12A G33A A56U U69C | 0.07
83 | C12A A13U U43C A64G | 0.5
84 | C11U A15G U48C | 0.29
